Assay results reported in the antibiotic and cytotoxicity screens of Wong et al. (2023).
Some of the results follow.

How the values were obtained:
HSkMC = human skeletal muscle cells; assay: cytotoxicity call (relative viability < 0.9); settings: 10 µM
HepG2 = assay: cytotoxicity call (relative viability < 0.9); settings: 10 µM
S. aureus RN4220 = assay: growth inhibition call (relative growth <= 0.2); settings: 50 µM

Row | SMILES | cytotoxicity call (HSkMC) | cytotoxicity call (HepG2) | growth inhibition call (S. aureus RN4220)
1 | CC1(C)Cc2cc(CN)ccc2O1 | inactive | inactive | inactive
2 | Cc1ccc(NC(=O)c2ccc(CN3CC[C@H](N(C)C)C3)c(C(F)(F)F)c2)cc1Nc1nccc(-c2cncnc2)n1 | active | active | inactive
3 | CC1OC(OC2C(O)CC(OC3C(O)CC(OC4CCC5(C)C(CCC6C5CC(O)C5(C)C(C7=CC(=O)OC7)CCC65O)C4)OC3C)OC2C)CC(O)C1O (stereo not given) | active | active | inactive
4 | Cc1ccc(S(=O)(=O)N(C)C[C@H]2OCCCC[C@@H](C)Oc3ccc(NC(=O)Nc4cccc5ccccc45)cc3C(=O)N([C@@H](C)CO)C[C@H]2C)cc1 | inactive | inactive | inactive
5 | CN1CCN(C(=O)C[C@@H]2CC[C@H]3[C@H](COc4ccc(NC(=O)c5cscn5)cc4C(=O)N3C)O2)CC1 | inactive | inactive | inactive
6 | C[C@@H]1CN([C@H](C)CO)C(=O)c2cc(C#Cc3ccc(F)cc3)cnc2O[C@H]1CN(C)Cc1ccccn1 | inactive | inactive | inactive
7 | C[C@H]1CN([C@@H](C)CO)C(=O)c2cccc(NS(=O)(=O)c3cccs3)c2O[C@@H]1CN(C)S(=O)(=O)c1ccccc1 | inactive | inactive | inactive
8 | COc1ccc(S(=O)(=O)Nc2ccc3c(c2)C(=O)N([C@H](C)CO)C[C@H](C)[C@H](CN(C)S(C)(=O)=O)OCCCC[C@@H](C)O3)cc1 | inactive | inactive | inactive
9 | COCC#Cc1cnc2c(c1)C(=O)N([C@H](C)CO)C[C@H](C)[C@H](CN(C)C(=O)Nc1cc(F)ccc1F)O2 | inactive | inactive | inactive
10 | NCc1nncn1-c1ccc(F)cc1 | inactive | inactive | inactive
11 | COc1ccc(S(=O)(=O)Nc2ccc3c(c2)C(=O)N([C@@H](C)CO)C[C@@H](C)[C@H](CN(C)C(=O)NC(C)C)O3)cc1 | inactive | inactive | inactive
12 | C[C@H](CO)N1C[C@H](C)[C@H](CN(C)S(C)(=O)=O)Oc2ccc(NS(=O)(=O)c3ccccc3)cc2CC1=O | inactive | inactive | inactive
13 | COc1ccc(NC(=O)Nc2cccc3c2O[C@H](CN(C)Cc2ccc(C(F)(F)F)cc2)[C@@H](C)CN([C@@H](C)CO)C3=O)cc1 | inactive | inactive | inactive
14 | Cc1ccc(S(=O)(=O)N(C)C[C@@H]2Oc3ccc(NS(=O)(=O)c4cn(C)cn4)cc3CC(=O)N([C@@H](C)CO)C[C@@H]2C)cc1 | inactive | inactive | inactive
15 | NCCCC[C@H](NC(=O)[C@@H]1CCCN1C(=O)[C@@H]1CSSC[C@H](N)C(=O)N[C@@H](Cc2ccccc2)C(=O)N[C@@H](Cc2ccccc2)C(=O)NC(CCC(N)=O)C(=O)N[C@@H](CC(N)=O)C(=O)N1)C(=O)NCC(N)=O (stereo not given in full) | inactive | inactive | inactive
16 | COc1ccc(S(=O)(=O)Nc2ccc3c(c2)C(=O)N([C@@H](C)CO)C[C@H](C)[C@H](CN(C)C(=O)Nc2ccccc2)OCCCC[C@H](C)O3)cc1 | inactive | inactive | inactive
17 | CNC[C@@H]1OCCCC[C@H](C)Oc2ccc(NS(=O)(=O)c3c(C)noc3C)cc2C(=O)N([C@H](C)CO)C[C@@H]1C | inactive | inactive | inactive
18 | C[C@@H]1CCCCO[C@@H](CN(C)C(=O)Nc2ccc3c(c2)OCO3)[C@H](C)CN([C@@H](C)CO)C(=O)c2cc(NC(=O)Cc3ccccc3)ccc2O1 | inactive | inactive | inactive
19 | Clc1ccc(-c2nnc(Nc3ccccc3)s2)c(Cl)c1 | inactive | inactive | inactive
20 | COc1cccc(NC(=O)N2C[C@H](O)COC[C@@H]3O[C@@H](CC(=O)NCCCN4CCOCC4)CC[C@H]32)c1 | inactive | inactive | inactive
21 | CN1C(=O)c2cc(NS(=O)(=O)c3ccc(F)cc3)ccc2OC[C@H]2O[C@H](CC(=O)NCC(F)(F)F)CC[C@@H]21 | inactive | inactive | inactive
22 | Cc1noc(C)c1S(=O)(=O)N(C)C[C@@H]1Oc2ccc(NC(=O)Nc3ccc4c(c3)OCO4)cc2CC(=O)N([C@H](C)CO)C[C@@H]1C | inactive | inactive | inactive
23 | CC(C)NC(=O)Nc1cccc2c1O[C@H](CN(C)S(=O)(=O)c1ccccc1)[C@@H](C)CN([C@@H](C)CO)C2=O | inactive | inactive | inactive
24 | CCN(CC)S(=O)(=O)c1ccc(C(=O)O)cc1 | inactive | inactive | inactive
25 | CCS(=O)(=O)Nc1ccc2c(c1)C(=O)N(C)C[C@H](OC)[C@H](C)CN(Cc1ccccn1)[C@H](C)CO2 | inactive | inactive | inactive
26 | C[C@@H]1CCCCO[C@H](CN(C)C(=O)NC2CCCCC2)[C@@H](C)CN([C@H](C)CO)C(=O)c2cc(NC(=O)Nc3ccc(F)cc3)ccc2O1 | inactive | inactive | inactive
27 | C[C@@H]1CN([C@H](C)CO)C(=O)c2cc(NC(=O)Nc3ccc(F)cc3)ccc2O[C@@H](C)CCCCO[C@H]1CN(C)Cc1ccc(C(=O)O)cc1 | inactive | inactive | inactive
28 | COc1ccc(CN(C)C[C@@H]2OCCCC[C@H](C)Oc3ccc(NC(=O)Nc4c(C)noc4C)cc3C(=O)N([C@H](C)CO)C[C@H]2C)cc1 | inactive | inactive | inactive

Row | SMILES | cytotoxicity call (HSkMC) | cytotoxicity call (HepG2) | growth inhibition call (S. aureus RN4220)
29 | CC(C)NC(=O)N(C)C[C@@H]1OCc2cnnn2CCCC(=O)N([C@H](C)CO)C[C@H]1C | inactive | inactive | inactive
30 | COCC(=O)N(C)C[C@@H]1Oc2cc(C#Cc3cccnc3)ccc2S(=O)(=O)N([C@@H](C)CO)C[C@H]1C | inactive | inactive | inactive
31 | CC(C)NC(=O)N(C)C[C@@H]1Oc2ccc(NC(=O)Cc3ccccc3)cc2C(=O)N([C@@H](C)CO)C[C@@H]1C | inactive | inactive | inactive
32 | C[C@@H]1CN([C@H](C)CO)C(=O)c2cc(NS(=O)(=O)c3ccc(Cl)cc3)ccc2O[C@H]1CN(C)Cc1ccc(Cl)c(Cl)c1 | inactive | inactive | inactive
33 | C[C@@H]1CCCCO[C@H](CN(C)Cc2ccc(Cl)c(Cl)c2)[C@@H](C)CN([C@@H](C)CO)C(=O)c2cc(NC(=O)Nc3cccc4ccccc34)ccc2O1 | inactive | inactive | inactive
34 | COc1ccc(NC(=O)N[C@H]2CC[C@H](CCNC(=O)CN3CCOCC3)O[C@H]2CO)cc1 | inactive | inactive | inactive
35 | C[C@@H]1CCCCO[C@H](CN(C)S(=O)(=O)c2ccc(F)cc2)[C@@H](C)CN([C@@H](C)CO)C(=O)c2cc(NC(=O)CCC(F)(F)F)ccc2O1 | inactive | inactive | inactive
36 | CC(C)c1ccccc1Cc1cc(C(=O)Nc2ccc(S(=O)(=O)c3ccccc3C(C)(C)C)cc2)c(O)c(O)c1O | active | active | inactive
37 | CC(=O)NCCCC[C@@H]1NC(=O)[C@H]2C[C@@H](C(=O)NCCCCCNC(=O)CS)[C@@H](c3ccc(O)cc3)N2C1=O | inactive | inactive | inactive
38 | C[C@@H]1CCCCO[C@H](CN(C)Cc2ccc(C(=O)O)cc2)[C@@H](C)CN([C@H](C)CO)C(=O)c2cc(NC(=O)Nc3ccc(C(F)(F)F)cc3)ccc2O1 | inactive | inactive | inactive
39 | CCOc1nc2c(ncn2C)c(=O)n1C | inactive | inactive | inactive
40 | C[C@H](CO)N1C[C@H](C)[C@H](CN(C)Cc2ccc(Cl)c(Cl)c2)Oc2c(NC(=O)Nc3ccccc3)cccc2C1=O | inactive | inactive | inactive
41 | N#Cc1c(N)n(CCN)c2nc3ccccc3nc12 | inactive | inactive | inactive
42 | NC(N)=O | inactive | inactive | inactive
43 | O=C(C[C@H]1C=C[C@@H](NC(=O)Cc2ccccn2)[C@@H](CO)O1)NCCc1ccncc1 | inactive | inactive | inactive
44 | COc1ccc(NC(=O)Nc2ccc3c(c2)C(=O)N([C@H](C)CO)C[C@@H](C)[C@@H](CN(C)S(=O)(=O)c2ccccc2)OCCCC[C@H](C)O3)cc1 | inactive | inactive | inactive
45 | C=CC[C@@H](CC(=O)N[C@@H](CO)Cc1ccccc1)C(=O)N[C@H](C)COC(=O)[C@@H](CC=C)CC(=O)OC(C)(C)C | inactive | inactive | inactive
46 | COc1ccc(NC(=O)N(C)C[C@H]2OCCCC[C@@H](C)Oc3ccc(NC(=O)Nc4ccc5c(c4)OCO5)cc3C(=O)N([C@H](C)CO)C[C@@H]2C)cc1 | inactive | inactive | inactive
47 | COc1ccc(NC(=O)Nc2ccc3c(c2)[C@@H]2C[C@@H](CC(=O)N4CCN(C)CC4)O[C@@H](CO)[C@@H]2O3)cc1 | inactive | inactive | inactive
48 | C[C@@H](O)C#Cc1ccc2c(c1)O[C@H](CN(C)C(=O)c1ccccc1)[C@@H](C)CN([C@@H](C)CO)S2(=O)=O | inactive | inactive | inactive
49 | CO[C@@H]1CN(C)C(=O)c2cc(NC(=O)Nc3cccc(Cl)c3)ccc2OC[C@H](C)N(C(=O)Nc2c(C)noc2C)C[C@H]1C | inactive | inactive | inactive
50 | Nc1nc(S)c2nc[nH]c2n1 | inactive | active | inactive
51 | COc1ccc(CN(C)C[C@@H]2OCCCC[C@H](C)Oc3ccc(NC(=O)Nc4ccc(OC)cc4)cc3C(=O)N([C@@H](C)CO)C[C@@H]2C)cc1 | inactive | active | inactive
52 | C[C@H]1CN([C@@H](C)CO)C(=O)c2cc(NS(C)(=O)=O)ccc2O[C@H]1CN(C)C(=O)Nc1ccc(C(F)(F)F)cc1 | inactive | active | inactive
53 | C[C@H](NC(=O)[C@@H]1N[C@@H]2c3ccc(-c4ccc(C(=O)N(C)C)cc4)c(=O)n3C[C@@H]2[C@H]1CO)c1ccccc1 | inactive | inactive | inactive
54 | CC(C)NC(=O)N(C)C[C@H]1Oc2ccc(NC(=O)Nc3ccc4c(c3)OCO4)cc2C(=O)N([C@H](C)CO)C[C@@H]1C | inactive | inactive | inactive
55 | C[C@@H]1CN([C@H](C)CO)C(=O)Cc2cc(NC(=O)Nc3ccccc3)ccc2O[C@H]1CN(C)S(C)(=O)=O | inactive | inactive | inactive
